Experimental data from PubChem BioAssay AID488969 (Vanderbilt High Throughput Screening Facility, 2010).
Over roughly 110,000 compounds, “z-score” has its median near -0.1; the highest 2% begin near 2. The list shows a part of the results. The source made the active and inactive calls.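 The calls were made as follows: active = z-score in the third read window above 3 or below -3; inactive = the rest.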

target: Metabotropic glutamate receptor 8 (Rattus norvegicus) (UniProt P70579); experiment: rat mGluR8 modulators via GIRK flux, primary screen, cell-based, thallium flux, HTS (AID 488969); conditions: HEK293 rat mGluR8, GIRK (G protein-gated inwardly rectifying potassium channel) thallium flux, FluoZin2; at 10 µM; stronger effect = higher value; submaximal glutamate (EC20) added with thallium
Sequence of UniProt P70579 (P70579 whole entry, looked up): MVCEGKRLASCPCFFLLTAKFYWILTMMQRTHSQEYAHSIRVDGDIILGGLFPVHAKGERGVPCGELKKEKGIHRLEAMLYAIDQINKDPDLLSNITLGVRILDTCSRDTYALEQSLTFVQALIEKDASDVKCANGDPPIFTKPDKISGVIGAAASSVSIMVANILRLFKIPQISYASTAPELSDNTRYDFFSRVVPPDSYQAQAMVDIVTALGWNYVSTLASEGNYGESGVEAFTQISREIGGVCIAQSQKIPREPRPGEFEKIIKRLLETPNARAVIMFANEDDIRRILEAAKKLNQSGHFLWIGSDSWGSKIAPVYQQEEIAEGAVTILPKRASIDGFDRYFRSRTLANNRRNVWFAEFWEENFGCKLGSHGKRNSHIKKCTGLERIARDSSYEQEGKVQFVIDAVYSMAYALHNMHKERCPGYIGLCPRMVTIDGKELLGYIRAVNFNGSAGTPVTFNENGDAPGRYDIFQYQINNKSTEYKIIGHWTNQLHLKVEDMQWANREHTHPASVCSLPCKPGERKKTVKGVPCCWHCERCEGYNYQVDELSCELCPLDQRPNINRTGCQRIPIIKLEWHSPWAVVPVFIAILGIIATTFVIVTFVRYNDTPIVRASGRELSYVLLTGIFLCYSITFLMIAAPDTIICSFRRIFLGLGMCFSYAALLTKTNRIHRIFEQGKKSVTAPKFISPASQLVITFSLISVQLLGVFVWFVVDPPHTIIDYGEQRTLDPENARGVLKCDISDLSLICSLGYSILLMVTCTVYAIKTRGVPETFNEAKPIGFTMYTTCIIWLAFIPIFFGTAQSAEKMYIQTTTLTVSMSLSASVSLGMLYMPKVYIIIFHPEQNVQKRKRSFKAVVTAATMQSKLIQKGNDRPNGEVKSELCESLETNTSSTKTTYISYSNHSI

SMILES | z-score
O=C(CSCc1cnn(-c2ccccc2)c1-n1cccc1)NCC1CCCO1 (stereo not drawn) | 0.0662
O=C(CN1CCCN(S(=O)(=O)c2ccc(Br)s2)CC1)Nc1ccc(Cl)cc1 | -0.0129
COc1ccccc1NC(=O)c1nn(-c2ccc(F)c(F)c2)ccc1=O | 0.117
c1ccc(-c2cc(N3CCCCC3)nc(-c3ccccc3)n2)cc1 | -0.21
CC(=O)c1cc(-c2ccccc2)n(CC(=O)Nc2cc(C)cc(C)c2)c1C | -0.238
Cc1ccc(-c2nnn(CC(=O)N3CCC(C)CC3)n2)o1 | -0.288
O=C(Nc1ccc(-c2cn3ccccc3n2)cc1)c1ccc(Cl)cc1 | -0.529
COC(=O)c1nc(N)sc1-c1ccccc1 | -0.0596
O=C(NCCSc1ccccc1)c1ccco1 | -0.0112
CCCCn1c(=O)c2ccccc2c2ccccc2c1=O | 0.196
CCOC(=O)C1=C(N)N(c2ccccc2)C(=O)C1 | -0.483
CCOc1cc(S(=O)(=O)n2c(C)nc3ccccc32)ccc1F | 0.607
Nc1nc2nc(SCC(=O)N3CCCc4ccccc43)[nH]c2c(=O)[nH]1 | 0.318
Cn1c(=O)c2c(SCC(=O)c3ccccc3)nc(C3CC3)nc2n(C)c1=O | -0.0681
Nc1nc(-c2ccccc2)nc2sc3c(c12)CCCC3 | -0.278
O=C(c1ccncc1)N(Cc1ccco1)Cc1cc2ccccc2[nH]c1=O | -0.495
O=[N+]([O-])c1cc(Cl)ccc1Sc1cccc2cccnc12 | 0.0973
Cn1c(O)c(N=NC(=O)Cn2ccc(C(F)(F)F)n2)c2ccccc21 | 0.825
Cc1ccc(NC(=O)CN(C)CC(=O)Nc2ccc(N3CCOCC3)cc2)c([N+](=O)[O-])c1 | -0.253
O=C(CN(Cc1cccs1)C(=O)c1csnn1)NC1CCCC1 | -0.424
CS(=O)(=O)N(CC(=O)NCc1ccco1)c1ccc(Cl)c(C(F)(F)F)c1 | active: 4.31
COc1ccc(-n2cnc3c(cnn3CCC#N)c2=N)cc1 | 1.18
CCOc1ccc(C(=O)N(Cc2ccc(OC)cc2)Cc2cc3cc(OC)ccc3[nH]c2=O)cc1 | 0.111

SMILES | z-score
COc1cc2c(cc1OC)C(C(=O)Nc1ccc3c(c1)OCCO3)C(c1cccnc1)N(C)C2=O (stereo not drawn) | 0.449
Cc1ccccc1Cn1ccc(-c2ccc3c(c2)OCO3)n1 | -0.221
Cc1ccnc(NC(=O)C23CC4CC(CC(C4)C2)C3)c1 | -0.108
COc1ccc(NC(=O)OC(C)C)cc1 | -0.841
COc1cccc(C(=O)Nc2cccc(-c3nc4ncccc4o3)c2C)c1 | -0.228
CCN(CC)S(=O)(=O)c1ccc(NS(=O)(=O)c2ccc(C)c(C)c2)cc1 | 0.0866
CC(=O)N(/N=C1\Sc2ccccc2C1=O)c1ccccc1 | -0.388
O=C(c1cccnc1)N1CCN(c2ccc([N+](=O)[O-])cc2Cl)CC1 | 0.396
CC1(C)CC(=O)c2cn3ncnc3nc2C1 | -0.217
Cc1ccc2c(CC(=O)NCc3ccco3)coc2c1C | 0.19
CCCCCCCCCn1c2c(c(=N)c3c1CCC3)CCC2 | active: 4.64
O=C(Cn1c(SCC(=O)N2CCc3ccccc32)nc2ccccc21)NC1CCCC1 | 0.988
O=S(=O)(NCCC1=CCCCC1)c1cccc2nsnc12 | -0.683
O=C(c1nc(-c2ccccc2)n(-c2ccccc2)n1)N1CCCCCC1 | 0.217
CC1(C)CC(=O)C2=C(C1)c1c(ccc3ccccc13)NC2c1ccc(Br)o1 (stereo not drawn) | -0.249
CCC(=O)Oc1ccc2ccccc2c1CNC(=O)c1ccccc1 | -1.26
CCOC(=O)c1ccc(S(=O)(=O)N2CCN(S(=O)(=O)CC)CC2)cc1 | -0.0124
CCN1CCc2c(C#N)c(N3CCOCC3)nc(NCCO)c2C1 | -0.118
CC(N=Cc1ccccc1O)c1ccccc1 (stereo not drawn) | -0.206
COc1ccc2nc(/C(C#N)=C\c3ccc(Oc4ccc([N+](=O)[O-])cn4)cc3)[nH]c2c1 | -0.3
CCn1ncc(Cl)c1C(=O)Nc1cc(Cl)ccc1Cl | 0.0474
Cc1ccc(C(=O)Nc2ccccc2C(=O)NC(C(=O)O)C(C)C)cc1 (stereo not drawn) | -0.939
Cc1ccc(/C(N)=N/OC(=O)N2c3ccccc3Sc3ccccc32)cc1 | 0.0341

SMILES | z-score
OC1(c2cccc(C(F)(F)F)c2)CCN(c2ncnc3c2[nH]c2ccccc23)CC1 | 0.406
COCCCNC(=O)Cn1nnc(-c2ccccc2NC(=O)c2ccc(F)cc2)n1 | 1.89
CCn1c(=O)c([N+](=O)[O-])c(N2CCOCC2)c2ccccc21 | -0.199
CCCOc1ccc(C(=O)Nc2nc(C)c(Cc3ccc4c(c3)OCO4)s2)cc1 | -1.11
CCCN1Cc2cccc(C(=O)Nc3ccc(S(=O)(=O)N4CCCCCC4)cc3)c2C1=O | -0.212
CC(C)CC(=O)N1CCN(CC2CC=CCC2)CC1 (stereo not drawn) | 0.476
O=C(Nc1ccc(F)cc1F)c1ccccc1-c1ccccc1 | -0.0645
CONC(=O)c1cc(OCC(F)(F)F)ccc1OCC(F)(F)F | 0.0114
COCCCNC(=O)c1nc2c(nnn2Cc2cc(C)ccc2C)c(=O)[nH]1 | -0.145
Cc1sc2nc(C(C)(C)C)oc(=O)c2c1C | -0.0397
Brc1ccc(Oc2ncc(CN3CCOCC3)s2)cc1 | -0.109
CCCCCSc1nnc(-c2cc(Br)ccc2N)c(=O)[nH]1 | -0.152
CCc1cccc(NC(=O)CCC(=O)O)c1 | -0.104
O=C(Cn1c(=O)sc2ccccc21)Nc1ccc(S(=O)(=O)N2CCCCC2)cc1 | -0.11
Cc1ccc(NC(=O)Nc2ccccc2C#N)c(Cl)c1 | -0.0673
COc1ccc(S(=O)(=O)N(C)CC(=O)Nc2cccc(C(C)=O)c2)cc1Cl | -0.0605
COc1ccccc1C(=O)Nc1nnc(-c2ccc3c(c2)CCCC3)o1 | -0.536
Cc1ccc(CNC(=O)CCNC(=O)c2ccco2)cc1 | 0.0138
O=S(=O)(NCC1OCCc2ccccc21)c1ccccc1 (stereo not drawn) | -0.014
O=C(NC1CC1)C1CCN(Cc2cnn(-c3ccccc3)c2-n2cccc2)CC1 | 0.0858
O=S(=O)(NCC(Nc1ccc(Cl)cc1)c1ccccc1)c1ccccc1 (stereo not drawn) | -0.268
O=C(N1CCCCC1)N1CCN(C(=O)N(c2ccccc2)c2ccccc2)CC1 | active: 3.16
COc1cc(NC(=O)Nc2ccccc2)c(OC)cc1NC(=O)CN1CCCCC1 | -0.428

SMILES | z-score
COC(=O)c1c(-c2ccccc2)csc1NC(=O)CSc1ncnc2sc(C)c(C)c12 | -0.0554
COC(=O)c1cccc(-n2cnnn2)c1 | -0.171
COCCNC(=O)c1c[nH]c2ccc(OC)cc2c1=O | 0.733
CC(C)Cn1c(-c2cc([N+](=O)[O-])ccc2Cl)nc2c1c(=O)[nH]c(=O)n2Cc1ccccc1 | -0.213
CCOC(=O)C1(P(=O)(c2ccc(Cl)cc2)c2ccc(Cl)cc2)CCC1 | 0.0882
COC(=O)c1ccc(CSc2nc3ccc(C)cc3[nH]2)o1 | -0.48
CC(=O)c1cnc(N(C)C)s1 | 0.141
C=CCNC(=O)c1nc2ccccc2s1 | 0.436
O=C(c1ccccc1)c1cnc(Nc2ccccc2Cl)s1 | -0.0732
O=C(CSc1nnc(-c2ccccc2Cl)o1)Nc1ccc2c(c1)OCCO2 | -0.339
COc1ccc(OC)c(NC2c3ccccc3C(=O)N2c2cccnc2)c1 (stereo not drawn) | -0.227
CCN(CC)c1ccc(/C=C/C(=O)c2ccc(Br)cc2)cc1 | -0.604
CC(C)(C)C(=O)Nc1cc(C(F)(F)F)ccc1N1CCOCC1 | -0.137
CCCCCCSc1nsc(NC(C)=O)n1 | -0.485
CCc1ccc(-c2cc(C(=O)N3N=C(C(F)F)CC3(O)C(F)F)c3ccccc3n2)cc1 (stereo not drawn) | -0.151
Cc1ccc(/C=C/C(=O)N2CCc3ccccc3C2)cc1 | -0.018
CCN(CC)CCNC(=O)c1ccc(Cl)c(S(=O)(=O)N2CCCCCC2)c1 | 1.85
CCOC(=O)N1CCC(NC(=O)CCC(=O)N2CC(C)Oc3ccc(Cl)cc32)CC1 (stereo not drawn) | -0.627
COCCSc1nnc(-c2cccc(C#N)c2)n1C | 2.31
CN(C)c1ncnc2c1NC1=C(S2)C(=NCCCC(=O)O)CC(C)(C)C1 | -0.245
O=C(O)CCn1c(SCc2cccc3ccccc23)nc2ccccc21 | 2.1
CCCCn1c(N)c(C(=S)NC(=O)CC(C)(C)C)c(=O)n(C)c1=O | active: 9.54
C=CCSc1nn2c(=O)c3ccccc3nc2s1 | -0.0919

SMILES | z-score
Cc1cc2cc3c(cc2nc1SCC(=O)N1CCN(C(=O)c2ccco2)CC1)OCO3 | active: -3.74
CC1CCCCN1S(=O)(=O)c1coc(C(N)=O)c1 (stereo not drawn) | 0.0539
CCOC(=O)NC1(C(F)(F)F)C(=O)N(Cc2ccccc2)C2=C1C(=O)CC(C)(C)C2 (stereo not drawn) | -0.817
Cc1noc(C(=O)N2CC3(C)CC2CC(C)(C)C3)c1Cl (stereo not drawn) | -0.183
COc1ccccc1C(c1nnnn1Cc1ccco1)N1CCN(c2cccc(C)c2C)CC1 (stereo not drawn) | -0.0712
CCOC(=O)C1C(=O)C=C(C)C(C(=O)OCC)C1c1ccc(OC)cc1 (stereo not drawn) | -0.575
Cc1ccc(-c2nc3cccnc3o2)cc1NC(=O)COc1ccc(C(C)(C)C)cc1 | 0.0266
O=C1c2ccccc2S(=O)(=O)N1Cc1cccc(S(=O)(=O)N2CCOCC2)c1 | 0.684
COc1ccc(C(=O)N2CCN(c3cccc(Cl)c3)CC2)cc1 | -0.34
COC(=O)C(O)(CC(=O)Nc1ccc(C)c(F)c1)C(F)(F)F (stereo not drawn) | -0.207
Cc1csc(NC(=O)C2CCCO2)n1 (stereo not drawn) | -0.199
Cc1scc(C(=O)Nc2ccon2)c1-c1ccccc1 | -0.503
N#Cc1cc(NCC2CCCO2)c([N+](=O)[O-])cc1C#N (stereo not drawn) | -0.0308
CC(C(=O)NCc1cccs1)n1cccc1 (stereo not drawn) | -0.128
COc1ccc(NC(=O)/C=C/c2ccccc2)cn1 | 0.0122
CC(OC(=O)c1ccccc1NS(=O)(=O)c1cccc(C(F)(F)F)c1)C(=O)N(C)Cc1ccccc1 (stereo not drawn) | 0.0329
O=C(NCc1ccco1)C1CCC(N2C(=O)c3ccccc3C2=O)CC1 (stereo not drawn) | -0.0663
COc1ccc2nc(C)cc(SCC(=O)N/N=C/c3ccccc3)c2c1 | 0.834
Cc1ccc(-c2nnc3sc(CCc4ccccc4)nn23)cc1 | -1.98
O=C(c1ccccc1)N1CCC(=O)N1c1ccccc1 | -0.252
Cc1ccc(CS(=O)(=O)CCC(=O)NCCCN2CCCC2=O)cc1 | 0.332
